Results as given in the supplement of paper PMC8728848.
The other results are listed elsewhere or left out.

Key:
Experiment in all cases: glycan array binding signal (z-score within array); higher = stronger binding
Settings in all cases: glycan notation: IUPAC condensed, linker removed
[1] = target: Fuc(a1-2)[GalNAc(a1-3)]Gal(b1-3)GalNAc(b1-3)Gal(a1-4)Gal(b1-4)Glc
Method in brief: (§1)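 Columns mapping to the same glycan were averaged after glycan names were converted to IUPAC-condensed notation. The data come from 3228 arrays in the Consortium for Functional Glycomics database, limited to those with an available protein sequence. Binding is reported as a within-array Z-score averaged across arrays of one protein sequence and across linkers.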

[2] = target: Fuc(a1-2)[GalNAc(a1-3)]Gal(b1-3)GlcNAc
Method in brief: as §1

[3] = target: Fuc(a1-2)[GalNAc(a1-3)]Gal(b1-3)GlcNAc(b1-2)Man(a1-3)[Fuc(a1-2)[GalNAc(a1-3)]Gal(b1-3)GlcNAc(b1-2)Man(a1-6)]Man(b1-4)GlcNAc(b1-4)GlcNAc
Method in brief: as §1

[4] = target: Fuc(a1-2)[GalNAc(a1-3)]Gal(b1-3)GlcNAc(b1-2)Man(a1-3)[Fuc(a1-2)[GalNAc(a1-3)]Gal(b1-3)GlcNAc(b1-2)Man(a1-6)]Man(b1-4)GlcNAc(b1-4)[Fuc(a1-6)]GlcNAc
Method in brief: as §1

[5] = target: Fuc(a1-2)[GalNAc(a1-3)]Gal(b1-3)GlcNAc(b1-3)GalNAc
Method in brief: as §1

[6] = target: Fuc(a1-2)[GalNAc(a1-3)]Gal(b1-3)GlcNAc(b1-6)GalNAc
Method in brief: as §1

[7] = target: Fuc(a1-2)[GalNAc(a1-3)]Gal(b1-4)Glc
Method in brief: as §1

[8] = target: Fuc(a1-2)[GalNAc(a1-3)]Gal(b1-4)GlcNAc
Method in brief: as §1

[9] = target: Fuc(a1-2)[GalNAc(a1-3)]Gal(b1-4)GlcNAc(b1-2)Man
Method in brief: as §1

[10] = target: Fuc(a1-2)[GalNAc(a1-3)]Gal(b1-4)GlcNAc(b1-2)Man(a1-3)[Fuc(a1-2)[GalNAc(a1-3)]Gal(b1-4)GlcNAc(b1-2)Man(a1-6)]Man(b1-4)GlcNAc(b1-4)GlcNAc
Method in brief: as §1

[11] = target: Fuc(a1-2)[GalNAc(a1-3)]Gal(b1-4)GlcNAc(b1-2)Man(a1-3)[Fuc(a1-2)[GalNAc(a1-3)]Gal(b1-4)GlcNAc(b1-2)Man(a1-6)]Man(b1-4)GlcNAc(b1-4)[Fuc(a1-6)]GlcNAc
Method in brief: as §1

[12] = target: Fuc(a1-2)[GalNAc(a1-3)]Gal(b1-4)GlcNAc(b1-2)Man(a1-3)[GalNAc(a1-3)[Fuc(a1-2)]Gal(b1-4)GlcNAc(b1-2)Man(a1-6)]Man(b1-4)GlcNAc(b1-4)GlcNAc
Method in brief: as §1

[13] = target: Fuc(a1-2)[GalNAc(a1-3)]Gal(b1-4)GlcNAc(b1-3)Gal(b1-4)GlcNAc
Method in brief: as §1

[14] = target: Fuc(a1-2)[GalNAc(a1-3)]Gal(b1-4)GlcNAc(b1-3)Gal(b1-4)GlcNAc(b1-3)Gal(b1-4)GlcNAc
Method in brief: as §1

[15] = target: Fuc(a1-2)[GalNAc(a1-3)]Gal(b1-4)GlcNAc(b1-3)GalNAc
Method in brief: as §1

[16] = target: Fuc(a1-2)[GalNAc(a1-3)]Gal(b1-4)GlcNAc(b1-3)[Fuc(a1-2)[GalNAc(a1-3)]Gal(b1-4)GlcNAc(b1-6)]GalNAc
Method in brief: as §1

[17] = target: Fuc(a1-2)[GalNAc(a1-3)]Gal(b1-4)GlcNAc(b1-6)GalNAc
Method in brief: as §1

[18] = target: Fuc(a1-2)[GalNAc(a1-3)]Gal(b1-4)[Fuc(a1-3)]GlcNAc
Method in brief: as §1

[19] = target: Fuc(a1-2)[GalNAc(a1-3)]Gal(b1-4)[Fuc(a1-3)]GlcNAc(b1-3)GalNAc
Method in brief: as §1

[20] = target: Fuc(a1-2)[GalNAc(a1-4)]Gal(b1-4)GlcNAc
Method in brief: as §1

[21] = target: Fuc(a1-2)[GalNAc(b1-3)]Gal
Method in brief: as §1

Fuc(a1-3)GlcNAc = target: Fuc(a1-3)GlcNAc
Method in brief: as §1

[22] = target: Fuc(a1-3)[Gal(b1-4)]Glc6S
Method in brief: as §1

[23] = target: Fuc(a1-3)[Gal(b1-4)]GlcNAc
Method in brief: as §1

[24] = target: Fuc(a1-3)[Gal(b1-4)]GlcNAc(b1-2)Man
Method in brief: as §1

[25] = target: Fuc(a1-3)[Gal(b1-4)]GlcNAc(b1-2)Man(a1-3)[Fuc(a1-3)[Gal(b1-4)]GlcNAc(b1-2)Man(a1-6)]Man(b1-4)GlcNAc(b1-4)GlcNAc
Method in brief: as §1

[26] = target: Fuc(a1-3)[Gal(b1-4)]GlcNAc(b1-2)Man(a1-3)[Fuc(a1-3)[Gal(b1-4)]GlcNAc(b1-2)Man(a1-6)]Man(b1-4)GlcNAc(b1-4)[Fuc(a1-6)]GlcNAc
Method in brief: as §1

[27] = target: Fuc(a1-3)[Gal(b1-4)]GlcNAc(b1-2)Man(a1-6)[Gal(b1-4)GlcNAc(b1-2)Man(a1-3)]Man(b1-4)GlcNAc(b1-4)GlcNAc
Method in brief: as §1

[28] = target: Fuc(a1-3)[Gal(b1-4)]GlcNAc(b1-3)Gal(b1-3)[Fuc(a1-4)]GlcNAc
Method in brief: as §1

[29] = target: Fuc(a1-3)[Gal(b1-4)]GlcNAc(b1-3)Gal(b1-4)[Fuc(a1-3)]GlcNAc
Method in brief: as §1

[30] = target: Fuc(a1-3)[Gal(b1-4)]GlcNAc(b1-3)Gal(b1-4)[Fuc(a1-3)]GlcNAc(b1-3)Gal(b1-4)[Fuc(a1-3)]GlcNAc
Method in brief: as §1

[31] = target: Fuc(a1-3)[Gal(b1-4)]GlcNAc(b1-3)GalNAc
Method in brief: as §1

[32] = target: Fuc(a1-3)[Gal(b1-4)]GlcNAc(b1-4)Gal(b1-4)[Fuc(a1-3)]GlcNAc
Method in brief: as §1

[33] = target: Fuc(a1-3)[Gal(b1-4)]GlcNAc(b1-4)Gal(b1-4)[Fuc(a1-3)]GlcNAc(b1-4)Gal(b1-4)[Fuc(a1-3)]GlcNAc
Method in brief: as §1

[34] = target: Fuc(a1-3)[Gal(b1-4)]GlcNAc(b1-6)GalNAc
Method in brief: as §1

[35] = target: Fuc(a1-3)[Gal(b1-4)]GlcNAc(b1-6)[Gal(b1-3)GlcNAc(b1-3)]Gal(b1-4)Glc
Method in brief: as §1

[36] = target: Fuc(a1-3)[Gal(b1-4)]GlcNAc6S
Method in brief: as §1

[37] = target: Fuc(a1-3)[Gal3S(b1-4)]Glc
Method in brief: as §1

[38] = target: Fuc(a1-3)[Gal3S(b1-4)]Glc6S
Method in brief: as §1

[39] = target: Fuc(a1-3)[Gal3S(b1-4)]GlcNAc
Method in brief: as §1

[40] = target: Fuc(a1-3)[Gal3S(b1-4)]GlcNAc6S
Method in brief: as §1

[41] = target: Fuc(a1-3)[GalNAc(b1-4)]GlcNAc
Method in brief: as §1

[42] = target: Fuc(a1-3)[GalNAc(b1-4)]GlcNAc6S
Method in brief: as §1

[43] = target: Fuc(a1-3)[Neu5Ac(a2-3)]Gal(b1-4)GlcNAc(b1-3)GalNAc
Method in brief: as §1

Fuc(a1-4)GlcNAc = target: Fuc(a1-4)GlcNAc
Method in brief: as §1

B1: HPAIIITrx (Helix pomatia), Q1KM18 (protein)
chain: MLFVTIISLGLLAIVHGQCALKTIAFSAAIDREQTFDANQVVIYDIVITNHGNAYDNSTGLFTAPVDGMYSFQLNLLTIKEKEGWLELVHNGQLKVSVYAKQDSTYDSSSNSVIIKMKEGDRVNVRAHKKSGLFGRDDELYNTFSGHFLSGL
In the case of B1, the “glycan array binding signal (z-score)” value [1] is reported as 3.47, the “glycan array binding signal (z-score)” value [2] is reported as 1.38 and the “glycan array binding signal (z-score)” value [3] is reported as 1.46. For the same binder, the “glycan array binding signal (z-score)” value [4] was 1.28, the “glycan array binding signal (z-score)” value [5] was 0.992 and the “glycan array binding signal (z-score)” value [6] was 1.35. For the same binder, the “glycan array binding signal (z-score)” value [7] was 2.02, the “glycan array binding signal (z-score)” value [8] was 2.1 and the “glycan array binding signal (z-score)” value [9] was 2.83. For the same binder, the “glycan array binding signal (z-score)” value [10] was 6.33, the “glycan array binding signal (z-score)” value [11] was 0.882 and the “glycan array binding signal (z-score)” value [12] was 0.191. For the same binder, the “glycan array binding signal (z-score)” value [13] was 2.44, the “glycan array binding signal (z-score)” value [14] was 2.94 and the “glycan array binding signal (z-score)” value [15] was 1.41. For the same binder, the “glycan array binding signal (z-score)” value [16] was 3.2, the “glycan array binding signal (z-score)” value [17] was 1.74 and the “glycan array binding signal (z-score)” value [18] was 2.27. For the same binder, the “glycan array binding signal (z-score)” value [19] was -0.046, the “glycan array binding signal (z-score)” value [20] was 3.52 and the “glycan array binding signal (z-score)” value [21] was -0.233. The “glycan array binding signal (z-score)” value (Fuc(a1-3)GlcNAc) was -0.277, the “glycan array binding signal (z-score)” value [22] was 0.185 and the “glycan array binding signal (z-score)” value [23] was -0.236. For the same binder, the “glycan array binding signal (z-score)” value [24] was -0.237, the “glycan array binding signal (z-score)” value [25] was -0.171 and the “glycan array binding signal (z-score)” value [26] was -0.284. The “glycan array binding signal (z-score)” value [27] was -0.33, the “glycan array binding signal (z-score)” value [28] was -0.089 and the “glycan array binding signal (z-score)” value [29] was -0.242. For the same binder, the “glycan array binding signal (z-score)” value [30] was -0.438, the “glycan array binding signal (z-score)” value [31] was -0.117 and the “glycan array binding signal (z-score)” value [32] was 1.6. For the same binder, the “glycan array binding signal (z-score)” value [33] was -0.564, the “glycan array binding signal (z-score)” value [34] was -0.143 and the “glycan array binding signal (z-score)” value [35] was -0.43. For the same binder, the “glycan array binding signal (z-score)” value [36] was 0.249, the “glycan array binding signal (z-score)” value [37] was -0.164 and the “glycan array binding signal (z-score)” value [38] was -0.08. The “glycan array binding signal (z-score)” value [39] was -0.366, the “glycan array binding signal (z-score)” value [40] was 0.608 and the “glycan array binding signal (z-score)” value [41] was -0.229. The “glycan array binding signal (z-score)” value [42] was -0.297, the “glycan array binding signal (z-score)” value [43] was 2.21 and the “glycan array binding signal (z-score)” value (Fuc(a1-4)GlcNAc) was -0.334.
